For assay [1], the target named is T1, rat TMEM30A (CDC-50A) (rat, UniProt Q6AY41 2-328).
T1 construct: whole, on cells; also called C6orf67
T1 sequence (looked up): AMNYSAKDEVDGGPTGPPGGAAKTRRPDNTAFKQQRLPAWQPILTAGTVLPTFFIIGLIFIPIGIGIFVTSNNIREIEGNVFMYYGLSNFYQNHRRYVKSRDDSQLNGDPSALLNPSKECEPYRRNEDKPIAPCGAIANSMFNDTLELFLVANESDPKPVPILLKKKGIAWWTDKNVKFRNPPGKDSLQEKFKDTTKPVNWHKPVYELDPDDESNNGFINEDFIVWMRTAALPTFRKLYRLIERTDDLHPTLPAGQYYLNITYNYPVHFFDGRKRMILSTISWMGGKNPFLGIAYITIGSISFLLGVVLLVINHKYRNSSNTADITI
Description: flow cytometry on primary rat BBB endothelial cells; 'Affinity (nM)'. For orientation: Flow cytometry measures light scatter and fluorescence of single cells or particles in a stream.

Assay [2] addresses T1, rat TMEM30A (CDC-50A). Briefly: flow cytometry, rat TMEM30A-transfected Hek293 cells against primary rat BBB endothelial cells.
Assay [3] addresses T1, rat TMEM30A (CDC-50A). Description: flow cytometry on SV40-transformed rat BBB endothelial cells (SV-ARBEC); 'Affinity (nM)', called EC50 in paragraph 227.
For assay [4], the target named is T1, rat TMEM30A (CDC-50A). Briefly: flow cytometry on Hek293 cells transiently transfected with rat TMEM30A.
The target in assay [5] is T1, rat TMEM30A (CDC-50A). Briefly: flow cytometry, SV40-transformed against primary rat BBB endothelial cells.

B1: agly (T299A) hFc-FC5 (pEAG2403): FC5 VHH fused to the C-terminus of human IgG1 aglycosyl Fc (Fc fusion)
chain: [here human IgG1 Fc with changes without letters]GGGSDVQLQASGGGLVQAGGSLRLSCAASGFKITHYTMGWFRQAPGKEREFVSRITWGGDNTFYSNSVKGRFTISRDNAKNTVYLQMNSLKPEDTADYYCAAGSTSTATPLRVDYWGKGTQVTVSS
notes: Divalent, Fc-dimerised molecule expressed in DG44 CHO cells
Take B1: in the assay with rat TMEM30A (CDC-50A) [1], the EC50 stood at 1700 nM.

B2: FC5-agly (T299A) hFc (pEAG2345): FC5 VHH fused to the N-terminus of human IgG1 aglycosyl Fc (Fc fusion)
chain: DVQLQASGGGLVQAGGSLRLSCAASGFKITHYTMGWFRQAPGKEREFVSRITWGGDNTFYSNSVKGRFTISRDNAKNTVYLQMNSLKPEDTADYYCAAGSTSTATPLRVDYWGKGTQVTVSSA[here human IgG1 Fc with changes without letters]
notes: Divalent, Fc-dimerised molecule expressed in DG44 CHO cells; The calculated Mwt of 78,725 fits two chains; also called FC5-Fc; FC5Fc
Take B2: in the assay with rat TMEM30A (CDC-50A) [2], the “fold weaker binding on rat TMEM30A transfected Hek293 cells against primary BBB endothelial cell line” value is around 170 fold. The figures for the EC50 in the assay with rat TMEM30A (CDC-50A) [1], in the assay with rat TMEM30A (CDC-50A) [3] and with rat TMEM30A (CDC-50A) [4] were 11 nM, 75 nM and around 1700 nM, respectively. Also, the “fold weaker binding on SV40 transformed cell line against primary rat BBB endothelial cells” value with rat TMEM30A (CDC-50A) [5] is around 7 fold.

In general, EC50 refers to the concentration giving half of the maximal effect. Read a low EC50 as greater potency.
